Experiments:
[1] = tested on: cabbage Alternaria sooty spot fungi (Alternaia brassicicola); assay: Test Example C: cabbage Alternaria sooty spot, spray treatment of cabbage plants; format: in vivo; conditions: for Test C control value: cabbage Alternaria sooty spot; for Test C control value class (cabbage Alternaria sooty spot): control value=100{1-(n/3)}
Source text: [Test Example C] Cabbage Alternaria Sooty Spot
Test plants (cabbage variety: Shikidori) were cultivated until the cotyledons extended after the sowing of seeds.
<Control Value> Control value=100{1−(n/3)}

[2] = tested on: wheat brown rust fungi (Puccinia recondita); assay: Test Example E: wheat brown rust, spray treatment of wheat plants; format: in vivo; conditions: for Test E control value: wheat brown rust; for Test E control value class (wheat brown rust): control value=100{1-(n/3)}
[3] = tested on: gray mold fungi (Botrytis cinerea); assay: Test Example B: tomato gray mold, spray treatment of tomato plants; conditions: for Test B control value: tomato gray mold; for Test B control value class (tomato gray mold): control value=100{1-(n/3)}
[4] = tested on: grape downy mildew fungus (Plasmopara viticola); assay: Test Example G: grape downy mildew, spray treatment of grape plants; conditions: for Test G control value: grape downy mildew, 7 to 10 days after inoculation; for Test G control value class (grape downy mildew): 2.5 ml/pot, grape Neomuscat, 7 to 10 days from inoculation
[5] = tested on: barley powdery mildew fungi (Blumeria graminis f. sp. hordei); assay: Test Example D: barley powdery mildew, spray treatment of barley plants; conditions: for Test D control value: barley powdery mildew; for Test D control value class (barley powdery mildew): control value=100{1-(n/3)}
[6] = spray treatment of cabbage plants
[7] = spray treatment of wheat plants
[8] = spray treatment of tomato plants
[9] = spray treatment of barley plants

SMILES	Test C control value [1, 6]	Test B control value [3, 8]	Test G control value ([4]; 250 ppm spray (2.5 ml/pot))	Test D control value [5, 9]	Test C control value ([1]; spray treatment)	Test E control value ([2]; spray treatment)	Test B control value ([3]; spray treatment)	Test G control value ([4]; 250 ppm spray)	Test D control value ([5]; spray treatment)	also measured
Cc1ccc(O)cc1-n1cc(C)c(=O)c(C)c1-c1c(F)cc(F)cc1F [Compound 314]	H (H shows the control value of more than 50%)	H (H shows the control value of more than 50%)	H (H shows the control value of more than 50%)	H (H shows the control value of more than 50%)						Test E control value [2, 7]: H (H shows the control value of more than 50%)
CC(C)C(C)n1cc(Cl)c(=O)c(Br)c1-c1c(F)cc(F)cc1F (stereo not shown) [Compound 42]										Test C control value class (cabbage Alternaria sooty spot) [1, 6]: H (H shows the control value of more than 50%); Test E control value class (wheat brown rust) [2, 7]: H (H shows the control value of more than 50%); Test B control value class (tomato gray mold) [3, 8]: H (H shows the control value of more than 50%); Test G control value class (grape downy mildew) ([4]; 250 ppm spray): H (H shows the control value of more than 50%); Test D control value class (barley powdery mildew) [5, 9]: H (H shows the control value of more than 50%)
O=c1c(Br)cn(-c2ccccc2C(F)(F)F)c(-c2c(F)cccc2F)c1Cl [Compound 371]	H (H shows the control value of more than 50%)	H (H shows the control value of more than 50%)	L (L shows the control value of 50% or less)	H (H shows the control value of more than 50%)						Test E control value [2, 7]: H (H shows the control value of more than 50%)
CCc1c(-c2c(F)cccc2F)n(-c2cccc(F)c2C)cc(C)c1=O [Compound 552]					H (H shows the control value of more than 50%)	H (H shows the control value of more than 50%)	H (H shows the control value of more than 50%)	H (H shows the control value of more than 50%)	H (H shows the control value of more than 50%)	
CCc1c(-c2c(F)cc(F)cc2F)n(-c2cc(OC)ccc2C)cc(Br)c1=O [Compound 527]					H (H shows the control value of more than 50%)	H (H shows the control value of more than 50%)	H (H shows the control value of more than 50%)	H (H shows the control value of more than 50%)	H (H shows the control value of more than 50%)	
CCc1c(-c2c(F)cc(F)cc2F)n(CC(C)C)cc(Br)c1=O [Compound 220]	H (H shows the control value of more than 50%)	H (H shows the control value of more than 50%)	H (H shows the control value of more than 50%)	H (H shows the control value of more than 50%)						Test E control value [2, 7]: H (H shows the control value of more than 50%)
Cc1cccc(F)c1-c1c(C)c(=O)c(C)cn1-c1ccccc1 [Compound 610]					H (H shows the control value of more than 50%)	H (H shows the control value of more than 50%)	H (H shows the control value of more than 50%)	L (L shows the control value of 50% or less)	L (L shows the control value of 50% or less)	
Cc1ccc(F)cc1-n1cc(Br)c(=O)c(C)c1-c1ccccc1 [Compound 398]					L (L shows the control value of 50% or less)	H (H shows the control value of more than 50%)	L (L shows the control value of 50% or less)	L (L shows the control value of 50% or less)	L (L shows the control value of 50% or less)	
Cc1ccccc1-n1cc(Br)c(=O)c(Cl)c1-c1ccccc1 [Compound 378]					L (L shows the control value of 50% or less)	L (L shows the control value of 50% or less)	L (L shows the control value of 50% or less)	L (L shows the control value of 50% or less)	L (L shows the control value of 50% or less)	
Cc1ccc(O)cc1-n1cc(Br)c(=O)c(Cl)c1-c1c(F)cc(F)cc1F [Compound 280, 5-bromo-3-chloro-1-(5-hydroxy-2-methylphenyl)-2-(2,4,6-trifluorophenyl)pyridin-4(1H)-one]	H (H shows the control value of more than 50%)	H (H shows the control value of more than 50%)	L (L shows the control value of 50% or less)	L (L shows the control value of 50% or less)						Test E control value [2, 7]: H (H shows the control value of more than 50%)
COc1cc(F)c(-c2c(Cl)c(=O)c(Cl)cn2CCCC(F)(F)F)c(F)c1 [Compound 85]										Test C control value class (cabbage Alternaria sooty spot) [1, 6]: H (H shows the control value of more than 50%); Test E control value class (wheat brown rust) [2, 7]: H (H shows the control value of more than 50%); Test B control value class (tomato gray mold) [3, 8]: H (H shows the control value of more than 50%); Test G control value class (grape downy mildew) ([4]; 250 ppm spray): H (H shows the control value of more than 50%); Test D control value class (barley powdery mildew) [5, 9]: L (L shows the control value of 50% or less)
CC(C)CCn1cc(Cl)c(=O)c(Br)c1-c1c(F)cc(F)cc1F [Compound 201]	H (H shows the control value of more than 50%)	L (L shows the control value of 50% or less)	L (L shows the control value of 50% or less)	L (L shows the control value of 50% or less)						Test E control value [2, 7]: L (L shows the control value of 50% or less)
Cc1ccccc1-n1cc(Cl)c(=O)c(Cl)c1-c1c(F)cc(F)cc1F [Compound 63]										Test C control value class (cabbage Alternaria sooty spot) [1, 6]: H (H shows the control value of more than 50%); Test E control value class (wheat brown rust) [2, 7]: H (H shows the control value of more than 50%); Test B control value class (tomato gray mold) [3, 8]: H (H shows the control value of more than 50%); Test G control value class (grape downy mildew) ([4]; 250 ppm spray): L (L shows the control value of 50% or less); Test D control value class (barley powdery mildew) [5, 9]: H (H shows the control value of more than 50%)
O=c1c(Cl)cn(-c2cc(F)ccc2Cl)c(-c2c(F)cccc2F)c1Br [Compound 109]										Test C control value class (cabbage Alternaria sooty spot) [1, 6]: H (H shows the control value of more than 50%); Test E control value class (wheat brown rust) [2, 7]: H (H shows the control value of more than 50%); Test B control value class (tomato gray mold) [3, 8]: H (H shows the control value of more than 50%); Test G control value class (grape downy mildew) ([4]; 250 ppm spray): L (L shows the control value of 50% or less); Test D control value class (barley powdery mildew) [5, 9]: L (L shows the control value of 50% or less)
CCc1c(-c2c(F)cccc2F)n(-c2cccc(Cl)c2C)cc(Br)c1=O [Compound 524]					H (H shows the control value of more than 50%)	H (H shows the control value of more than 50%)	H (H shows the control value of more than 50%)	L (L shows the control value of 50% or less)	L (L shows the control value of 50% or less)	
CCc1ccccc1-n1cc(Br)c(=O)c(CC)c1-c1ccccc1 [Compound 498]					L (L shows the control value of 50% or less)	L (L shows the control value of 50% or less)	L (L shows the control value of 50% or less)	L (L shows the control value of 50% or less)	L (L shows the control value of 50% or less)	
C=CCOc1cc(F)c(-c2c(C)c(=O)c(C)cn2-c2cc(C)ccc2C)c(F)c1 [Compound 405]					H (H shows the control value of more than 50%)		H (H shows the control value of more than 50%)	L (L shows the control value of 50% or less)	H (H shows the control value of more than 50%)	
O=c1c(Br)cn(-c2ccccc2)c(-c2ccc(F)cc2F)c1Cl [Compound 469]					H (H shows the control value of more than 50%)		H (H shows the control value of more than 50%)	L (L shows the control value of 50% or less)	L (L shows the control value of 50% or less)	
Cc1cc(F)ccc1-n1cc(Br)c(=O)c(Br)c1-c1c(F)cc(F)cc1F [Compound 273]	H (H shows the control value of more than 50%)	H (H shows the control value of more than 50%)	L (L shows the control value of 50% or less)	H (H shows the control value of more than 50%)						
Cc1c(N(C)C)cccc1-n1cc(Br)c(=O)c(Cl)c1-c1c(F)cc(F)cc1F [Compound 335]	H (H shows the control value of more than 50%)	H (H shows the control value of more than 50%)	H (H shows the control value of more than 50%)	L (L shows the control value of 50% or less)						
Cc1c(-n2cc(C)c(=O)c(C)c2-c2c(F)cc(F)cc2F)ccc(Br)c1[N+](=O)[O-] [Compound 425]					L (L shows the control value of 50% or less)		L (L shows the control value of 50% or less)	H (H shows the control value of more than 50%)	L (L shows the control value of 50% or less)	

— US11000038B2, “Pyridone compounds and agricultural and horticultural fungicides containing the same as active ingredients” (priority 2017, dated 2021)
